Results as given in the supplement of paper PMC9446081.
About 220 (0.56%) of roughly 39,000 compounds showed activity. Some of the results follow.

system: Escherichia coli K-12 BW25113; assay: relative growth (OD600 normalised to plate interquartile mean) (fraction); higher = less growth inhibition, active = 0.2 or less; conditions: 50 µM; LB; incubation time: overnight (16-24 h)
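Note: static incubation at 37 °C against the wild-type strain, values averaged over two biological replicates.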

| Structure (SMILES) | relative growth |
| --- | --- |
| Cc1ccc(S(=O)(=O)N(C)C[C@@H]2Oc3ccc(NC(=O)CCCN(C)C)cc3CC(=O)N([C@@H](C)CO)C[C@H]2C)cc1 | inactive: 0.999 |
| C[C@@H]1CN([C@H](C)CO)C(=O)c2cc(NC(=O)NC3CCCCC3)ccc2O[C@@H](C)CCCCO[C@@H]1CN(C)C(=O)Cc1ccccc1 | inactive: 1.04 |
| O=C(C[C@@H]1CC[C@H]2[C@@H](COC[C@@H](O)CN2C(=O)Nc2ccc3c(c2)OCO3)O1)N1CCN(c2ccccc2)CC1 | inactive: 0.992 |
| C[C@@H]1CCCCO[C@@H](CN(C)Cc2ccccc2)[C@H](C)CN([C@H](C)CO)C(=O)c2cc(NC(=O)Nc3cccc4ccccc34)ccc2O1 | inactive: 0.995 |
| Cc1ccc(S(=O)(=O)Nc2ccc3c(c2)C(=O)N([C@H](C)CO)C[C@H](C)[C@@H](CN(C)Cc2ccc4c(c2)OCO4)OCCCC[C@H](C)O3)cc1 | inactive: 0.994 |
| Cc1cc2c(cc1C)N[C@@H](CC(N)=O)C(=O)N2 | inactive: 0.99 |
| C[C@@H]1CCCCO[C@@H](CN(C)CC2CCCCC2)[C@@H](C)CN([C@H](C)CO)C(=O)c2cc(NC(=O)NC3CCCCC3)ccc2O1 | inactive: 0.99 |
| Nc1ncnc(NCCN2CCOCC2)c1[N+](=O)[O-] | inactive: 1.02 |
| Cc1noc(C)c1S(=O)(=O)Nc1ccc2c(c1)CC(=O)N([C@@H](C)CO)C[C@H](C)[C@@H](CN(C)S(=O)(=O)c1cn(C)cn1)O2 | inactive: 1.01 |
| COc1ccc(S(=O)(=O)N(C)C[C@@H]2Oc3ccc(NC(=O)Cc4ccccc4)cc3C(=O)N([C@H](C)CO)C[C@@H]2C)cc1 | inactive: 0.988 |
| C[C@@H]1CN([C@@H](C)CO)C(=O)Cc2cc(NC(=O)Nc3cccc4ccccc34)ccc2O[C@@H]1CN(C)Cc1ccc(C(=O)Nc2ccccc2N)cc1 | inactive: 1.02 |
| O=C(NCCCN1CCOCC1)[C@@H]1N[C@@H]2c3ccc(C4=CCCCC4)c(=O)n3C[C@@H]2[C@H]1CO | inactive: 0.983 |
| COc1ccc(NC(=O)Nc2ccc3c(c2)C(=O)N([C@H](C)CO)C[C@H](C)[C@@H](CN(C)C(=O)Nc2c(C)noc2C)OCCCC[C@H](C)O3)cc1 | inactive: 0.987 |
| CS(=O)(=O)CCC#N | inactive: 1 |
| C[C@@H]1CN([C@H](C)CO)C(=O)c2cc(NS(=O)(=O)c3ccccc3)ccc2O[C@@H]1CN(C)S(=O)(=O)c1ccc(F)cc1 | inactive: 1.04 |
| COc1ccc(CN2C[C@H](C)[C@H](OC)CN(C)C(=O)c3cc(NC(=O)c4nc5ccccc5s4)ccc3OC[C@@H]2C)cc1 | inactive: 1 |
| COc1ccc(CN(C)C[C@H]2OCCCC[C@@H](C)Oc3ccc(NS(=O)(=O)c4ccc(C)cc4)cc3C(=O)N([C@@H](C)CO)C[C@@H]2C)cc1 | inactive: 0.979 |
| CN(C)Cc1cn(CC[C@@H]2CC[C@@H](NS(=O)(=O)c3ccccc3)[C@H](CO)O2)nn1 | inactive: 1.05 |
| COc1ccc(S(=O)(=O)N[C@H]2CC[C@H](CCNC(=O)CN3CCOCC3)O[C@@H]2CO)cc1 | inactive: 0.98 |

| Structure (SMILES) | relative growth |
| --- | --- |
| C[C@H]1CN([C@@H](C)CO)C(=O)c2cccc(NC(=O)c3ccc(-c4nccs4)cc3)c2O[C@H]1CN(C)S(=O)(=O)c1ccc(Cl)cc1 | inactive: 0.99 |
| C[C@H]1CN([C@@H](C)CO)C(=O)c2cc(-c3ccc(C(=O)N(C)C)cc3)cnc2O[C@@H]1CN(C)C(=O)C1CC1 | inactive: 1.02 |
| C[C@@H]1CN([C@@H](C)CO)C(=O)c2cc(NC(=O)Nc3cccc4ccccc34)ccc2O[C@H]1CN(C)C(=O)Nc1ccc(F)cc1 | inactive: 1.07 |
| CN(C)CCCNC(=O)C[C@@H]1CC[C@@H]2[C@H](COC[C@@H](O)CN2S(=O)(=O)c2ccc(Cl)cc2)O1 | inactive: 1.01 |
| COc1ccc(NC(=O)Nc2ccc3c(c2)C(=O)N([C@H](C)CO)C[C@H](C)[C@H](CN(C)C(=O)Nc2cccc4ccccc24)O3)cc1 | inactive: 1.01 |
| COc1ccc(NC(=O)N(C)C[C@H]2Oc3ccc(NC(=O)Nc4ccc(C(F)(F)F)cc4)cc3CC(=O)N([C@@H](C)CO)C[C@@H]2C)cc1 | inactive: 1.02 |
| Cc1noc(C)c1NC(=O)N(C)C[C@H]1Oc2ccc(NC(=O)Nc3ccc(C(F)(F)F)cc3)cc2CC(=O)N([C@@H](C)CO)C[C@H]1C | inactive: 0.985 |
| C[C@@H]1CCCCO[C@@H](CN(C)C(=O)NC2CCCCC2)[C@@H](C)CN([C@H](C)CO)C(=O)c2cc(NC(=O)Cc3ccccc3)ccc2O1 | inactive: 1.01 |
| C[C@H]1CN([C@@H](C)CO)C(=O)Cc2cc(NC(=O)CCN3CCOCC3)ccc2O[C@H]1CN(C)S(=O)(=O)c1ccccc1 | inactive: 1.01 |
| CC(C)NC(=O)N1C[C@H]2[C@H](C(=O)N(C)Cc3ccccn3)CCS(=O)(=O)[C@H]2C1 | inactive: 1.01 |
| COC(=O)[C@H](Cc1ccc(-n2cc(-c3ccc(C(=O)NO)cc3)nn2)cc1)N1CC2=C[C@H]([C@@H](O)Cc3ccccc3)n3c(=O)n(C)c(=O)n3[C@@H]2[C@@H](C2CC2)O1 | inactive: 0.989 |
| OC[C@H]1O[C@H](Nc2ccccc2)C[C@@H]1O | inactive: 0.99 |
| C[C@H](CO)N1C[C@H](C)[C@H](CN(C)Cc2ccc(-c3ccccc3)cc2)Oc2ccc(NC(=O)Nc3cccc4ccccc34)cc2C1=O | inactive: 1.02 |
| COc1ccc2c3c([nH]c2c1)[C@@H](CO)N(C[C@]13CN(Cc2ccccc2Cl)C1)S(=O)(=O)c1cn(cn1)C | inactive: 1.01 |
| C[C@H](CO)N1C[C@H](C)[C@H](CN(C)S(=O)(=O)c2cn(C)cn2)Oc2ccc(NC(=O)NC3CCCCC3)cc2CC1=O | inactive: 1.03 |
| C[C@@H]1CN([C@H](C)CO)S(=O)(=O)c2ccc(-c3ccncc3)cc2O[C@@H]1CN(C)Cc1ccc(Oc2ccccc2)cc1 | inactive: 1.01 |
| C[C@@H]1CN([C@@H](C)CO)C(=O)Cc2cc(NC(=O)c3ccncc3)ccc2O[C@H]1CN(C)S(C)(=O)=O | inactive: 0.971 |
| COc1cccc(S(=O)(=O)N(C)C[C@H]2OCc3cnnn3CCCC(=O)N([C@@H](C)CO)C[C@H]2C)c1 | inactive: 1.02 |
